Measured values published in the supplement of paper PMC10126150.
Values marked as one replicate rest on one cluster of the flow cell; about a third of the high ones do not repeat.
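Further: ATP exposure 15 min at 22 °C before imaging.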

Each sequence was assayed on ATP (assay: switch fluorescence ratio, 500 uM ATP over buffer (Cy3 cluster intensity, sum of 5 cycles each) (fold (ratio)); higher = stronger signal-on switching upon ATP binding; sequences stand for … in TCGTCGGCAGCGTCAGATGTGTATAAGAGACAGTTTTTTTTTTTTTTTTTTTTTTTTT…TC). Details: aptamer strand: ATP DNA aptamer (quencher-CACCTGGGGGAGTATTGCGGAGGAAGG + anchor), 100 nM annealed; ATP concentration: 500 uM; one replicate.
In short: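 Five buffer/ATP imaging cycles were run on Cy3-labelled switching-strand clusters on a modified Illumina MiSeq flow-cell, with NaOH stripping and re-annealing between cycles. In each cycle, clusters annealed to 100 nM quencher-labelled ATP aptamer were imaged in selection buffer, then after 15 min with 500 uM ATP at 22 °C. Per cluster, the fluorescence ratio is summed target-cycle over summed buffer-cycle Cy3 intensity, averaged per switch-domain sequence. Only clusters within 100-1000 RFU were kept.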
TTAGGCAATA was tested, and the switch fluorescence ratio was 2.
For TTAGGGGAG, the switch fluorescence ratio was 1.06.
TTAGGGGATA gave a switch fluorescence ratio of 1.04.
Sequence TTAGGTAAGT has a switch fluorescence ratio of 0.996.
TTAGGTCCTC showed a switch fluorescence ratio of 0.987.
In the case of TTAGGTGCCC, the switch fluorescence ratio is reported as 1.04.
TTAGGTTCGT gave a switch fluorescence ratio of 0.961.
Sequence TTAGGTTCTT has a switch fluorescence ratio of 1.02.
TTAGGTTTTA was tested, and the switch fluorescence ratio was 1.03.
With TTAGTATTTG the switch fluorescence ratio was 1.02.
For TTAGTCATTG, the switch fluorescence ratio was 0.925.
TTAGTCGCCC gave a switch fluorescence ratio of 0.995.
With TTAGTCTATT the switch fluorescence ratio was 0.976.
Sequence TTAGTGCGCG has a switch fluorescence ratio of 1.05.
For TTAGTGGAT, the switch fluorescence ratio was 1.02.
TTAGTGGGTG gave a switch fluorescence ratio of 0.959.
In the case of TTAGTGTGAT, the switch fluorescence ratio is reported as 1.02.
TTAGTTGCGG gave a switch fluorescence ratio of 1.06.
Sequence TTAGTTGCTC has a switch fluorescence ratio of 1.02.
TTAGTTGTCC was tested, and the switch fluorescence ratio was 0.971.
TTAGTTGTCT gave a switch fluorescence ratio of 0.974.
TTATAAGGTC showed a switch fluorescence ratio of 0.985.
Work on TTATACAAAA yielded a switch fluorescence ratio of 1.02.
Work on TTATACTA yielded a switch fluorescence ratio of 1.
For TTATAGATTA, the switch fluorescence ratio was 0.961.
For TTATAGCACA, the switch fluorescence ratio was 1.04.
Work on TTATAGGGAA yielded a switch fluorescence ratio of 1.01.
TTATAGGGTG was tested, and the switch fluorescence ratio was 1.04.
TTATAGTCTG was tested, and the switch fluorescence ratio was 0.999.
Work on TTATATATAT yielded a switch fluorescence ratio of 0.982.
TTATCAAGG gave a switch fluorescence ratio of 0.984.
TTATCAAGT showed a switch fluorescence ratio of 0.966.
TTATCAATCC gave a switch fluorescence ratio of 0.984.
TTATCAGGCC gave a switch fluorescence ratio of 0.965.
Sequence TTATCCTAGC has a switch fluorescence ratio of 0.978.
In the case of TTATCCTCTT, the switch fluorescence ratio is reported as 1.01.
Work on TTATCTGG yielded a switch fluorescence ratio of 0.965.
TTATCTTCCG was tested, and the switch fluorescence ratio was 1.2.
In the case of TTATGCCAAA, the switch fluorescence ratio is reported as 0.994.
TTATGCGAAA was tested, and the switch fluorescence ratio was 0.994.
TTATGCGCGA was tested, and the switch fluorescence ratio was 2.55.
TTATGCGG showed a switch fluorescence ratio of 1.02.
Sequence TTATGCGGT has a switch fluorescence ratio of 1.01.
Sequence TTATGCGTTA has a switch fluorescence ratio of 0.947.
TTATGGAAC was tested, and the switch fluorescence ratio was 1.03.
In the case of TTATGGCGTA, the switch fluorescence ratio is reported as 1.02.
TTATGGCGTG was tested, and the switch fluorescence ratio was 0.99.
Work on TTATGTACAT yielded a switch fluorescence ratio of 0.97.
In the case of TTATGTCGTG, the switch fluorescence ratio is reported as 0.981.
With TTATGTGTTA the switch fluorescence ratio was 0.956.
Sequence TTATTAGAAT has a switch fluorescence ratio of 0.941.
TTATTAGGCT was tested, and the switch fluorescence ratio was 1.05.
Work on TTATTCGGGC yielded a switch fluorescence ratio of 1.
Work on TTATTGCTCC yielded a switch fluorescence ratio of 1.19.
In the case of TTATTGGAA, the switch fluorescence ratio is reported as 1.01.
For TTATTGGATT, the switch fluorescence ratio was 1.06.
Work on TTATTGGTT yielded a switch fluorescence ratio of 1.05.
TTATTTAT was tested, and the switch fluorescence ratio was 0.996.
Work on TTATTTGGAA yielded a switch fluorescence ratio of 1.02.
TTCAAAGGAT gave a switch fluorescence ratio of 0.996.
For TTCAAAGGCG, the switch fluorescence ratio was 1.05.
For TTCAAATAT, the switch fluorescence ratio was 1.
TTCAAATTTC showed a switch fluorescence ratio of 1.02.
TTCAACATTC showed a switch fluorescence ratio of 1.16.
TTCAACCGGA gave a switch fluorescence ratio of 1.01.
TTCAAGCAGG showed a switch fluorescence ratio of 1.03.
TTCACAACGC showed a switch fluorescence ratio of 1.08.
TTCACAGAC was tested, and the switch fluorescence ratio was 1.53.
For TTCACCAAGT, the switch fluorescence ratio was 1.05.
Work on TTCACGGTTT yielded a switch fluorescence ratio of 0.973.
With TTCACTAAGA the switch fluorescence ratio was 1.04.
In the case of TTCACTTCC, the switch fluorescence ratio is reported as 2.17.
For TTCAGGACGC, the switch fluorescence ratio was 1.09.
In the case of TTCAGGAGAG, the switch fluorescence ratio is reported as 1.02.
In the case of TTCAGGAGGC, the switch fluorescence ratio is reported as 1.01.
TTCAGGGCGT showed a switch fluorescence ratio of 1.01.
Work on TTCAGGGTGT yielded a switch fluorescence ratio of 1.17.
For TTCAGTACTA, the switch fluorescence ratio was 0.99.
Work on TTCAGTGCAC yielded a switch fluorescence ratio of 0.979.
TTCAGTTATA showed a switch fluorescence ratio of 1.03.
TTCAGTTCTT was tested, and the switch fluorescence ratio was 0.952.
TTCAGTTTC showed a switch fluorescence ratio of 1.01.
For TTCATAAGCT, the switch fluorescence ratio was 1.01.
With TTCATACTTT the switch fluorescence ratio was 1.02.
In the case of TTCATATTGG, the switch fluorescence ratio is reported as 0.982.
Work on TTCATCATTT yielded a switch fluorescence ratio of 1.02.
TTCATCCCTA showed a switch fluorescence ratio of 1.02.
For TTCATCGGT, the switch fluorescence ratio was 1.05.
TTCATCTAAT showed a switch fluorescence ratio of 0.987.
TTCATCTATC showed a switch fluorescence ratio of 0.95.
In the case of TTCATTATAG, the switch fluorescence ratio is reported as 1.03.
Sequence TTCATTCCA has a switch fluorescence ratio of 1.06.
In the case of TTCATTGTTC, the switch fluorescence ratio is reported as 0.964.
TTCCAGATTA gave a switch fluorescence ratio of 1.03.
In the case of TTCCAGGACA, the switch fluorescence ratio is reported as 1.04.
Sequence TTCCAGGTCT has a switch fluorescence ratio of 1.05.
With TTCCAGTGAG the switch fluorescence ratio was 1.02.
TTCCATAGAC was tested, and the switch fluorescence ratio was 1.1.
TTCCATCAAG gave a switch fluorescence ratio of 0.995.
TTCCATTGAG showed a switch fluorescence ratio of 1.
TTCCCACGAT showed a switch fluorescence ratio of 1.02.
TTCCCCAAGT gave a switch fluorescence ratio of 1.05.
Work on TTCCCCGCTT yielded a switch fluorescence ratio of 1.51.
In the case of TTCCCCGGAC, the switch fluorescence ratio is reported as 0.965.
Work on TTCCCCGTCG yielded a switch fluorescence ratio of 0.999.
TTCCCGTGAA was tested, and the switch fluorescence ratio was 1.04.
Sequence TTCCCGTGTA has a switch fluorescence ratio of 1.02.
For TTCCCTGTAT, the switch fluorescence ratio was 1.02.
In the case of TTCCGATAAA, the switch fluorescence ratio is reported as 1.12.
TTCCGGCCTT showed a switch fluorescence ratio of 1.18.
Sequence TTCCGGTGGT has a switch fluorescence ratio of 0.946.
With TTCCGTATGT the switch fluorescence ratio was 1.02.
Work on TTCCTACA yielded a switch fluorescence ratio of 1.01.
For TTCCTACAG, the switch fluorescence ratio was 1.11.
Work on TTCCTCAGGA yielded a switch fluorescence ratio of 1.01.
TTCCTCTTGA gave a switch fluorescence ratio of 0.975.
Work on TTCCTGGTAA yielded a switch fluorescence ratio of 1.05.
TTCCTTCTTC was tested, and the switch fluorescence ratio was 1.12.
TTCCTTGGGG was tested, and the switch fluorescence ratio was 0.976.
For TTCCTTTTCA, the switch fluorescence ratio was 1.05.
TTCGACATAG was tested, and the switch fluorescence ratio was 0.986.
Work on TTCGACGGGT yielded a switch fluorescence ratio of 1.03.
TTCGATAAAG gave a switch fluorescence ratio of 1.
TTCGATGCGT gave a switch fluorescence ratio of 1.02.
TTCGATTGGA showed a switch fluorescence ratio of 1.01.
Sequence TTCGCAAAAG has a switch fluorescence ratio of 3.14.
TTCGCACACT gave a switch fluorescence ratio of 1.15.
TTCGCAT showed a switch fluorescence ratio of 1.09.
Work on TTCGCATTAT yielded a switch fluorescence ratio of 2.83.
Sequence TTCGCATTGT has a switch fluorescence ratio of 0.996.
Sequence TTCGCCGTGG has a switch fluorescence ratio of 0.974.
TTCGCCTAGG was tested, and the switch fluorescence ratio was 1.13.
Work on TTCGCCTCGA yielded a switch fluorescence ratio of 1.02.
TTCGCGACCA was tested, and the switch fluorescence ratio was 0.966.
TTCGCGCCAG gave a switch fluorescence ratio of 0.998.
In the case of TTCGCTGTGC, the switch fluorescence ratio is reported as 1.61.
Sequence TTCGGAATCG has a switch fluorescence ratio of 0.96.
TTCGGACGAC gave a switch fluorescence ratio of 1.09.
Sequence TTCGGATCAT has a switch fluorescence ratio of 1.01.
TTCGGCGAAT gave a switch fluorescence ratio of 0.964.
TTCGGCTGCC gave a switch fluorescence ratio of 1.
TTCGGGCCTG was tested, and the switch fluorescence ratio was 1.03.
In the case of TTCGGGGTAC, the switch fluorescence ratio is reported as 2.38.
For TTCGGTCATC, the switch fluorescence ratio was 0.936.
TTCGGTCCAT showed a switch fluorescence ratio of 1.01.
Sequence TTCGGTCGTG has a switch fluorescence ratio of 0.995.
TTCGTAATG gave a switch fluorescence ratio of 1.04.
Work on TTCGTACTGC yielded a switch fluorescence ratio of 1.03.
TTCGTAGTTC showed a switch fluorescence ratio of 1.08.
Work on TTCGTCGGGA yielded a switch fluorescence ratio of 1.02.
With TTCGTCTAAA the switch fluorescence ratio was 1.06.
For TTCGTGTTGA, the switch fluorescence ratio was 1.02.
In the case of TTCGTTGGAT, the switch fluorescence ratio is reported as 1.05.
TTCGTTTAGC showed a switch fluorescence ratio of 0.971.
